According to patent US4605658A (priority 1983, dated 1986):
Converted amounts (≈) assume the structure as drawn.

Columns and labels:
Test in all cases: microbe, parasite or virus in culture
[1] = test system: Herpes simplex virus-1 (KOS); conditions: Human alphaherpesvirus 1, PRK; read-out: Minimum inhibitory concentration
[2] = test system: Vesicular stomatitis virus; format: cell-based; conditions: PRK, read-out: Minimum inhibitory concentration
Coxsackie B4 = conditions: Enterovirus B, B4, PRK; read-out: MIC50

| Compound | EC50 [1] [µg/mL] | EC50 [2] [µg/mL] | EC50 (Coxsackie B4) [µg/mL] |
| --- | --- | --- | --- |
| Nc1ncnc2c1ncn2CC(O)CO (racemic) [(RS)--DHPA, 9-(2,3-dihydroxypropyl)adenine, reference compound] | > 400 | 15 to 30 (≈ 71.7 to 143 µM) | – |
| COC(=O)C(O)Cn1cnc2c(N)ncnc21 (racemic) [Compound 1, methylester of 3-(adenin-9-yl)-2-hydroxypropanoic acid] | > 400 | 3 (≈ 12.6 µM) | > 400 |
| CCOC(=O)C(O)Cn1cnc2c(N)ncnc21 (racemic) [Compound 2] | > 400 | 1 (≈ 3.98 µM) | – |
| CCCOC(=O)C(O)Cn1cnc2c(N)ncnc21 (racemic) [Compound 3] | > 100 | 1 to 3 (≈ 3.77 to 11.3 µM) | – |
| CC(C)OC(=O)C(O)Cn1cnc2c(N)ncnc21 (racemic) [Compound 4] | > 400 | 3 (≈ 11.3 µM) | – |
| CCCCOC(=O)C(O)Cn1cnc2c(N)ncnc21 (racemic) [Compound 5] | > 200 | 3 (≈ 10.7 µM) | – |
| CCC(C)OC(=O)C(O)Cn1cnc2c(N)ncnc21 (racemic) [Compound 6] | > 400 | 1 (≈ 3.58 µM) | – |
| CC(C)COC(=O)C(O)Cn1cnc2c(N)ncnc21 (racemic) [Compound 7] | > 400 | 1 to 3 (≈ 3.58 to 10.7 µM) | – |
| CC(C)CCOC(=O)C(O)Cn1cnc2c(N)ncnc21 (racemic) [Compound 8] | > 400 | 3 (≈ 10.2 µM) | – |
| CCCCCCCCOC(=O)C(O)Cn1cnc2c(N)ncnc21 (racemic) [Compound 9] | > 100 | 7 (≈ 20.9 µM) | – |
| COCCOC(=O)C(O)Cn1cnc2c(N)ncnc21 (racemic) [Compound 10] | > 400 | 7 (≈ 24.9 µM) | – |
| Nc1ncnc2c1ncn2CC(O)C(=O)OC1CCCCC1 (racemic) [Compound 11] | > 100 | 1 (≈ 3.28 µM) | – |
| Nc1ncnc2c1ncn2C[C@H](O)CO [(S)--DHPA, 9-(2,3-dihydroxypropyl)adenine, reference compound] | > 400 | 15 to 30 (≈ 71.7 to 143 µM) | 100 (≈ 478 µM) |
| CCOC(=O)[C@@H](O)Cn1cnc2c(N)ncnc21 [C2 H5 (S)] | – | – | > 400 |
| COC(=O)[C@H](O)Cn1cnc2c(N)ncnc21 [CH3 (R), methylester of 3-(adenin-9-yl)-2-hydroxypropanoic acid] | – | – | 150 (≈ 632 µM) |
| COC(=O)[C@@H](O)Cn1cnc2c(N)ncnc21 [CH3 (S), methylester of 3-(adenin-9-yl)-2-hydroxypropanoic acid] | – | – | 150 (≈ 632 µM) |
